Results from PubChem BioAssay AID761 (NMMLSC, 2007).
The whole screen tested about 190,000 compounds, of which about 400 (0.21%) were called active. This list was built around the results that the source calls inconclusive (neither active nor inactive); the mix of calls is not that of the screen.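 Rule for the calls: active = percent activity GTP binding at least 20 points away from the 100% baseline, either down as inhibitor or up as activator; inconclusive = compound flagged as likely green fluorescent from well-wide comparison; inactive = the rest.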

What follows are compounds tested against Cell division control protein 42 homolog (Homo sapiens) (UniProt P60953) (assay: wildtype Cdc42 fluorescent GTP binding changes, either direction – biochemical, multiplex bead flow cytometry, Bodipy-GTP, primary screen (AID 761;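 note: median bead fluorescence of bound Bodipy-FL-GTP at 100 nM; 0% = excess unlabeled GTP control and 100% = no compound control; below 100% means less GTP binding so inhibitor and above means activator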)). Details: GST-Cdc42 beads, at 10 µM, actives lie on both sides.
Sequence of UniProt P60953 (P60953 whole entry, looked up): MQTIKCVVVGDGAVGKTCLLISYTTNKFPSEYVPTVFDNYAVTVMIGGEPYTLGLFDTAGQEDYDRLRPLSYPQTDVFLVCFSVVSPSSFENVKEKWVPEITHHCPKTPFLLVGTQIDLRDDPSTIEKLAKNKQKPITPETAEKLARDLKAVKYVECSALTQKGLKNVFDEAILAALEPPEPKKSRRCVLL
With `Cc1ccc(S(=O)(=O)c2cc3c(=O)n4ccccc4nc3n(C)c2=N)cc1` the percent activity (GTP binding) was inactive: 82%.
`COc1ccc(CNC(=O)COC(=O)c2ccc3c(c2)OCCO3)cc1` was tested, and the percent activity (GTP binding) was inconclusive: 104%.
`Cc1cc(C)n2ncc(C(=O)NCc3cccnc3)c2n1` was tested, and the percent activity (GTP binding) was inconclusive: 106%.
With `CC(=O)NS(=O)(=O)c1ccc(NC(=O)CSc2ccc(C)cc2)cc1` the percent activity (GTP binding) was inactive: 92%.
`O=C(NCC1CCCO1)C(c1ccc(F)cc1)N(C(=O)Cn1nnc(-c2ccc(F)cc2)n1)c1cccc(O)c1` (stereo unspecified) was tested, and the percent activity (GTP binding) was inconclusive: 93%.
With `CC1CN(c2nn3c(=O)c4ccccc4nc3c3ccccc23)CC(C)O1` (stereo unspecified) the percent activity (GTP binding) was inconclusive: 87%.
For `O=S(=O)(c1ccccc1)N(CC1CO1)c1ccccc1` (stereo unspecified), the percent activity (GTP binding) was inconclusive: 92%.
For `Cc1cc(OCc2nnc(SC(C)C(=O)O)n2Cc2ccccc2)ccc1Cl` (stereo unspecified), the percent activity (GTP binding) was inactive: 96%.
`Cc1cc(C)c(C#N)c(SCc2ccccc2)n1` was tested, and the percent activity (GTP binding) was inactive: 100%.
`CC(=O)c1cccc(CN2CCCC(CCC(=O)NCc3ccc(C)o3)C2)c1` (stereo unspecified) was tested, and the percent activity (GTP binding) was inactive: 92%.
`Cc1nn2c([nH]c(=O)c3ccccc32)c1C=O` was tested, and the percent activity (GTP binding) was inconclusive: 97%.
`CCCC(=O)NC(=S)c1c(C)n(C)n(-c2ccccc2)c1=O` was tested, and the percent activity (GTP binding) was inactive: 96%.
With `O=C(CSc1nc2ccccc2c(=O)n1-c1ccccc1)N/N=C/C=C/c1ccccc1[N+](=O)[O-]` the percent activity (GTP binding) was inconclusive: 95%.
`CNC(=S)N1CCc2cc(OC)c(OC)cc2C1COc1ccc(F)cc1` (stereo unspecified) was tested, and the percent activity (GTP binding) was inconclusive: 91%.
With `O=[N+]([O-])c1cc(S(=O)(=O)Nc2cccc(C(F)(F)F)c2)ccc1-n1nnc2ccccc21` the percent activity (GTP binding) was inconclusive: 94%.
For `COc1cc(/C=N/NC(=O)c2csc3c2CCCC3)cc(OC)c1O`, the percent activity (GTP binding) was inconclusive: 95%.
With `C=CCNCCCCOc1ccccc1-c1ccccc1` the percent activity (GTP binding) was inconclusive: 104%.
With `O=C(CCn1c(=O)oc2ccccc21)N1CCN(c2ccccc2F)CC1` the percent activity (GTP binding) was inconclusive: 105%.
With `COCCn1c(C)cc(C(=O)CSc2nnc(-c3cccnc3)n2-c2ccccc2F)c1C` the percent activity (GTP binding) was inconclusive: 104%.
With `COc1ccccc1NC(=O)c1cccc(NC(=O)c2ccco2)c1` the percent activity (GTP binding) was inconclusive: 94%.
`O=C(COC(=O)c1ccco1)Nc1cccc(Br)c1` was tested, and the percent activity (GTP binding) was inconclusive: 102%.
In the case of `COc1ccc(NC(=O)c2ccc3c(c2)OCO3)cc1[N+](=O)[O-]`, the percent activity (GTP binding) is reported as inconclusive: 95%.
`COc1ccc(-n2c(SCC(=O)NCCCN3CCCC3=O)nnc2C(C)N2CCCCC2)cc1` (stereo unspecified) was tested, and the percent activity (GTP binding) was inconclusive: 96%.
For `CN(NS(=O)(=O)c1ccc(Cl)cc1)c1nc(C(F)(F)F)nc2ccccc12`, the percent activity (GTP binding) was inconclusive: 97%.
`CC1Cc2ccccc2N1C(=O)C1CCCN(S(=O)(=O)c2cccc3cccnc23)C1` (stereo unspecified) was tested, and the percent activity (GTP binding) was inactive: 105%.
`O=c1[nH]cnc2c1C(c1ccccc1[N+](=O)[O-])c1c(nc[nH]c1=O)O2` was tested, and the percent activity (GTP binding) was inconclusive: 88%.
`O=C(N/N=C/c1cc2ccccc2nc1Cl)/C(=C/c1cccs1)NC(=O)c1ccccc1` was tested, and the percent activity (GTP binding) was inconclusive: 93%.
With `CC(=O)Nc1cc2c(cc1NC(=O)Cn1nc(-c3ccccc3F)ccc1=O)OCCO2` the percent activity (GTP binding) was inconclusive: 105%.
With `O=C(Nc1cc(C(=O)N2CCCC2)ccc1N1CCCC1)c1ccccc1F` the percent activity (GTP binding) was inconclusive: 108%.
With `Cc1cc(C)nc(-n2nc(C)cc2NC(=O)c2cccc(S(=O)(=O)N3CCCCC3)c2)n1` the percent activity (GTP binding) was inconclusive: 95%.
In the case of `Cc1nn(Cc2ccccc2)c(C)c1NC(=O)CSc1nc2c(c(C(F)(F)F)n1)CCc1ccccc1-2`, the percent activity (GTP binding) is reported as inactive: 84%.
`Brc1ccc(OCc2ccccc2)c(CNCc2ccncc2)c1` was tested, and the percent activity (GTP binding) was inconclusive: 95%.
With `CCOC(=O)c1c(C)[nH]c(C)c1C(=O)COc1ncnc2cc([N+](=O)[O-])ccc12` the percent activity (GTP binding) was active: 64%.
`COc1ccccc1NC(=O)c1ccc(NC(=O)COC(=O)CCC2CCCC2)cc1` was tested, and the percent activity (GTP binding) was inconclusive: 95%.
For `CCOC(=O)N1CCC(NC(=O)CS(=O)(=O)Cc2nc(-c3ccccc3C)oc2C)CC1`, the percent activity (GTP binding) was inconclusive: 105%.
With `N#C/C(=C/c1ccc(-c2ccccc2)o1)c1nc(-c2cccs2)cs1` the percent activity (GTP binding) was inconclusive: 152%.
In the case of `CCc1nnc(NC(=O)CSc2nnc(CNc3ccc(F)cc3)n2C2CCCCC2)s1`, the percent activity (GTP binding) is reported as inconclusive: 139%.
`C=CCn1c(Cn2nnc3ccccc32)nnc1SCC(=O)N/N=C/c1cc(Br)cc(OC)c1O` was tested, and the percent activity (GTP binding) was inconclusive: 93%.
`O=C(CCNS(=O)(=O)c1cccc2nsnc12)N1CCN(c2ccccn2)CC1` was tested, and the percent activity (GTP binding) was active: 122% [activator].
`CCOc1ccc(CN(C)CC(=O)Nc2cccc(C)c2)cc1OC` was tested, and the percent activity (GTP binding) was inconclusive: 98%.
`O=C(CSc1ncnc2ccccc12)NCCCO` was tested, and the percent activity (GTP binding) was inconclusive: 106%.
For `O=C1C2C3C=CC(C2C(=O)N1C1CCCCC1)C1C2C(=O)N(C4CCCCC4)C(=O)C2C31` (stereo unspecified), the percent activity (GTP binding) was inactive: 100%.
`CS(=O)(=O)c1nc(-c2ccc(F)cc2)cc(C(F)(F)F)n1` was tested, and the percent activity (GTP binding) was inconclusive: 96%.
For `Cc1cc(C(=O)OCC(=O)Nc2ccc(S(N)(=O)=O)cc2)c2ccccc2n1`, the percent activity (GTP binding) was inactive: 93%.
In the case of `CCN(C(=O)COC(=O)/C=C/c1ccccc1)C1CCCCC1`, the percent activity (GTP binding) is reported as inactive: 95%.
For `O=C(CSc1cccc[n+]1[O-])NC(=O)c1ccc(OC(F)F)cc1`, the percent activity (GTP binding) was inactive: 94%.
`O=C1NCCN1C(=O)c1cccc(Cl)c1` was tested, and the percent activity (GTP binding) was inconclusive: 105%.
For `COC(=O)c1ccccc1-c1ccc(C(c2c(C)[nH][nH]c2=O)c2c(C)[nH][nH]c2=O)o1`, the percent activity (GTP binding) was inconclusive: 91%.
In the case of `Cc1cc(C(=O)N/N=C/c2ccco2)n[nH]1`, the percent activity (GTP binding) is reported as inconclusive: 94%.
For `COc1cc(/C=N/NC(=O)CCn2nnc3ccccc32)ccc1O`, the percent activity (GTP binding) was inactive: 103%.
`CC(C)(C)n1nc2c(c1NC(=O)Cc1cccc3ccccc13)CS(=O)(=O)C2` was tested, and the percent activity (GTP binding) was inconclusive: 94%.
For `CCOc1ncccc1C(=O)OCC(=O)NCCc1ccc(OC)cc1`, the percent activity (GTP binding) was inconclusive: 106%.
`Cc1ccc2c(c1)c(-c1ccccc1)nc1nncn12` was tested, and the percent activity (GTP binding) was inconclusive: 95%.
`Cc1nnc(SCc2cc(=O)[nH]c(N3CCN(Cc4ccccc4)CC3)n2)s1` was tested, and the percent activity (GTP binding) was inconclusive: 104%.
`C=CCn1c(SCC(=O)N2CC(=O)Nc3ccccc32)nc2scc(-c3ccccc3)c2c1=O` was tested, and the percent activity (GTP binding) was inconclusive: 104%.
`CCOc1ccc2c(c1)c(N=NC(=N)N)c(O)n2C` was tested, and the percent activity (GTP binding) was inactive: 90%.
